From publication PMC4336329 (PLoS ONE, 2015)
Out of some 310,000 compounds screened, about 14,000 (4.5%) showed an effect of 50% or more. Effects have a minus sign here. Some of the results follow.

target: human ether-à-go-go-related gene (hERG) potassium channel (human, UniProt Q12809); experiment: primary screen, population patch clamp on CHO cells stably expressing hERG
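Also: peak tail current of the secondary pulse compared with the same well before compound.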

human ether-à-go-go-related gene (hERG) potassium channel, sequence (Q12809 whole entry, looked up): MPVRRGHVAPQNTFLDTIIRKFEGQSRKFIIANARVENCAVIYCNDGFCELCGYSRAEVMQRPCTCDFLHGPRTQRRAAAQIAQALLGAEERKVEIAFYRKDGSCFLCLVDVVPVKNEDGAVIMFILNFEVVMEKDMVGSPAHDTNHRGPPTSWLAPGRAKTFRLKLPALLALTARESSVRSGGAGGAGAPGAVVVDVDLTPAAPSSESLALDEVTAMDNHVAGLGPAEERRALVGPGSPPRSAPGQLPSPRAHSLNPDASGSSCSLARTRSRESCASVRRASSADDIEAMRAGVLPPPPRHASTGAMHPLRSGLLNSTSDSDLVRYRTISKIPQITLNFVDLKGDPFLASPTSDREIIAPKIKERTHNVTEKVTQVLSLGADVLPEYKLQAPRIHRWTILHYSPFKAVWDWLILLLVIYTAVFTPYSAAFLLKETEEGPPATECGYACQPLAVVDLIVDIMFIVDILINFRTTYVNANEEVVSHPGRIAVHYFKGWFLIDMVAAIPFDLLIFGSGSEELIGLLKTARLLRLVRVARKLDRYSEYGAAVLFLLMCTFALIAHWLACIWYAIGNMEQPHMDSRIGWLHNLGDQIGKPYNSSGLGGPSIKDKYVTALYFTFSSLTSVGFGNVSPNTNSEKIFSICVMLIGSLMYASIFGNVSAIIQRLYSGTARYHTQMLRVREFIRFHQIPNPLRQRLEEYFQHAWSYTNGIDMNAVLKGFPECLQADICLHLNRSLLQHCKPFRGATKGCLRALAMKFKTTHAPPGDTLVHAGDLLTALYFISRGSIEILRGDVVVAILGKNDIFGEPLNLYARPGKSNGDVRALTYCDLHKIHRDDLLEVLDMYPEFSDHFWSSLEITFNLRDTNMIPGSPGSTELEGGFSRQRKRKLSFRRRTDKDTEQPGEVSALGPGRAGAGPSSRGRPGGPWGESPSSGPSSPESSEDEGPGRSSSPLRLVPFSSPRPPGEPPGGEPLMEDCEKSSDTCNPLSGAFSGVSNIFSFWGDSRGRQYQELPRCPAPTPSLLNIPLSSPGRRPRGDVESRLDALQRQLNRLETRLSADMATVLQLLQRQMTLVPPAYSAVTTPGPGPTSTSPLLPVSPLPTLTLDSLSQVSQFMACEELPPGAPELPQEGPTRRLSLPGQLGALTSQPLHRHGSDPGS

| SMILES | hERG current change (%, negative = inhibition) at 10uM |
| --- | --- |
| Cc1ccc(-n2ncc3c(=O)n(CC(=O)N4CCN(c5ccccc5)CC4)cnc32)cc1 | -6.01% |
| CCCCN(C)C(=O)C1CCN(Cc2ccc(OCc3ccccc3)cc2)CC1.O=C(O)C(=O)O | -73.4% |
| N#Cc1cccc(NC(=O)COC(=O)C2CCC2)c1 | 23.2% |
| CCOC(CCn1ccc(O)c(Cc2ccc(Cl)cc2)c1=O)OCC | 8.78% |
| Nc1nonc1-n1nnc(C(=O)N/N=C/c2cccnc2)c1CSC1=NCCS1 | 3.21% |
| COc1cccc(C(=O)Nc2cnc(NC(=O)c3ccco3)cc2C)c1 | -14.3% |
| O=S(=O)(Nc1cccnc1)c1cccc(Cl)c1 | -6.62% |
| C[C@]1(C(=O)NCCCNc2ncc(C(F)(F)F)cc2Cl)C=C[C@@H](Cc2ccccc2)N1C(=O)c1ccccc1 | 7.01% |
| COc1cccc2c1O/C(=N\O)C(C(=O)Nc1cccc(C)c1C)C2 (centres unmarked) | 9.04% |
| O=C(Nc1cccnc1)c1ccc(Cl)c(Cl)c1 | 10.3% |
| O=C(CSc1nnc(CNC(=O)c2cccs2)o1)c1ccc(Cl)cc1 | -17.5% |
| O=C(O)CSc1nnc(-c2ccncc2)n1Cc1ccccc1 | 10.3% |
| CCCOc1ccc(C(=O)NCc2ccco2)cc1 | 8.99% |
| COc1ccccc1Cn1c(=O)[nH]c2cccnc21 | 11.2% |
| Cc1c(NC(=O)CN(c2ccc(F)cc2)S(=O)(=O)c2ccccc2)c(=O)n(-c2ccccc2)n1C | -0.664% |
| NCCc1ccc(S(N)(=O)=O)cc1 | 18.3% |
| O=C(CCN1CCN(C(c2ccccc2)c2ccccc2)CC1)N/N=C/c1ccc(O)cc1O | -53.1% |
| O=C(O)C1CCCCC1C(=O)NC1CCCCC1 (centres unmarked) | 1.54% |
| O=C(Nc1cccc(C(=O)O)c1)/C(=C\c1ccco1)NC(=O)c1ccccc1Cl | 7.53% |
| O=C(Cc1ccc(F)cc1)Nc1nnc(SCC(=O)NC2CCCC2)s1 | 1.56% |
| Cc1ccc(-c2[nH]c3ccccc3c2SCCNC(=O)c2ccc(S(=O)(=O)N3CCOCC3)cc2)cc1 | 19.2% |
| COc1ccc(C(CNC(=O)COc2ccccc2C)N2CCCC2)cc1 (centres unmarked) | -40.8% |
| Cc1cc(=O)oc2cc(OCC(=O)OCC(=O)NC(C)C)ccc12 | 11.2% |

| SMILES | hERG current change (%, negative = inhibition) at 10uM |
| --- | --- |
| COc1ccc(OCC(O)CNC(=O)Nc2cccc3ccccc23)cc1 (centres unmarked) | 7.58% |
| Cc1ccc(NN=C2C(=O)OC(C)(C)OC2=O)c(C)c1 | 5.02% |
| COc1ccc(OC)c(N/C(=N/C(=S)Nc2ccccc2)Nc2nc(C)cc(C)n2)c1 | 8.65% |
| CCN(CC)CCNC(=O)c1cc(-c2ccco2)nc2ccccc12.Cl | -65.5% |
| Cc1cc(=O)[nH]c(SCc2cc(Cl)ccc2OC(F)F)n1 | 11.2% |
| CC1CCCC(NC(=O)CSc2ccc(F)cc2)C1C (centres unmarked) | 18.7% |
| CCN(CC1COc2ccccc2O1)C(=S)NCCCN(C)C (centres unmarked) | -37.6% |
| COc1cc(NC(=O)c2ccccc2F)ccc1NC(=O)c1ccccc1Cl | 0.592% |
| O=C(NCc1ccccc1Cl)C(=O)NCC(c1ccco1)N1CCOCC1 (centres unmarked) | -8.45% |
| Cc1ccccc1OCc1nnc(SCC(=O)NCc2ccco2)n1C | -2.56% |
| CCCCOC(=O)NCN1C(=O)C2C3C=CC(C3)C2C1=O (centres unmarked) | -5.04% |
| CCN(CC)c1ccc(C=Nc2cc(C)cc(C)c2)c(O)c1 | 21.8% |
| O=C(CN1CCN(c2ccccn2)CC1)Nc1ccc([N+](=O)[O-])cc1C(=O)Nc1ccccc1F | -34.7% |
| Cc1nc(NC(=O)CCC(=O)O)sc1C(=O)N(C)C | 23.2% |
| COc1cc(OC)cc(C(=O)NCC(=O)OCc2ccc(Cl)c(Cl)c2)c1 | -8.82% |
| CCOC(=O)C1(CCCc2ccccc2)CCN(C(=O)C2CCCN(C(N)=O)C2)CC1 (centres unmarked) | -72.4% |
| COc1ccc(-c2ccccc2NC(=O)C2CCCN(Cc3ccco3)C2)cc1 (centres unmarked) | -46.3% |
| CCOc1ccc(NC(=O)CCN2CCN(c3ccccc3)CC2)cc1 | -33% |
| CC(C)N1CCC(=NNC(=O)c2ccccc2[N+](=O)[O-])CC1 | -4.84% |
| CC(C)Cc1nnc(NC(=O)Nc2ccccc2)s1 | 39% |
| CCC(C(=O)NCc1ccco1)N(C(=O)CNS(=O)(=O)c1ccc(F)cc1)c1ccccc1F (centres unmarked) | -5.69% |
| Cc1nc(SC(C(=O)c2ccccc2)c2ccccc2)n[nH]1 (centres unmarked) | 12.8% |
| Cc1sc2nc(C)n(/N=C/c3ccccc3O)c(=O)c2c1C | -7.37% |

| SMILES | hERG current change (%, negative = inhibition) at 10uM |
| --- | --- |
| COc1ccc(CNC(=O)CSc2nc3ccc(OC)cc3[nH]2)cc1 | -2.87% |
| COC(=O)c1c(C)[nH]c(C(=O)C(Cc2ccccc2)N(C)C)c1C (centres unmarked) | -17.4% |
| CN1CCc2c(sc3c2C(=O)NC(c2ccccn2)N3)C1 (centres unmarked) | -1.35% |
| CCc1c(C)nc2cc(-c3cc(OC)cc(OC)c3)nn2c1N1CCCC1 | -2.11% |
| CC1C(c2ccccc2)N(C)C(c2ccccc2)CC1(O)c1ccc(F)cc1 (centres unmarked) | 4.48% |
| COC(=O)c1ccc(NC(=O)C(=O)c2c[nH]c3ccccc23)cc1 | 9.8% |
| O=C(CN(C1CCCCC1)S(=O)(=O)c1ccc(F)cc1)NCc1ccncc1 | -41.9% |
| COc1ccc(S(=O)(=O)N2CCCCC2)cc1NC(=O)c1ccc([N+](=O)[O-])o1 | -2.81% |
| O=C(O)COc1ccccc1/C=N/NC(=O)C(O)c1ccccc1 (centres unmarked) | 10.4% |
| CCOc1ccc(NC(=O)Cc2ccc(NC3=NC4CS(=O)(=O)CC4S3)cc2)cc1 (centres unmarked) | 4.87% |
| CCC(=O)N1CCc2cc(Br)cc(S(=O)(=O)NCCN3CCCCC3CC)c21 (centres unmarked) | -20.4% |
| Cc1ccc(C(=O)c2c[nH]cc2-c2ccccc2)cc1 | -5.45% |
| CCc1nc(N2CCN(C(=S)NCCCOC)CC2)c2c3c(sc2n1)CCCC3 | -9.32% |
| N#C/C(=N\Nc1ccc(F)cc1)C(=N)N1CCCCCC1 | 10% |
| COc1ccc(N(CC(=O)NCCSC2CCCCC2)S(=O)(=O)c2ccccc2)c(OC)c1 | 4.16% |
| O=C(CSc1ccccc1)N1CCCC(Nc2ccccc2)C1 (centres unmarked) | -0.302% |
| COc1cccc(O)c1CN1CCCC(C(=O)c2cccc(C(F)(F)F)c2)C1 (centres unmarked) | -57.5% |
| CCOc1ccc(C(=O)NC(C(=O)NCc2ccccc2OC)C(C)C)cc1 (centres unmarked) | 17.5% |
| c1ccc(Cc2nn[nH]n2)cc1 | -8.71% |
| O=C(CCC1CCCC1)NCCS(=O)(=O)N1CCN(c2ccc(F)cc2)CC1 | -39.2% |
| Cc1ccc(CCNC(=O)C2CCN(S(=O)(=O)c3cccc4cccnc34)CC2)cc1 | -18.4% |
| O=C(Nc1cccc(S(=O)(=O)N2CCCC2)c1)c1cccc(OC(F)F)c1 | -56.4% |
| O=C(c1ccccc1Br)N1CCc2c([nH]c3ccccc23)C1 | 12.3% |

| SMILES | hERG current change (%, negative = inhibition) at 10uM |
| --- | --- |
| Cc1csc(NC(=O)c2ccc(Cl)cc2[N+](=O)[O-])n1 | -64.8% |
| CCN1C(Nc2ccccc2)=NC[C@@H]1C | 15.2% |
| Cc1ccc(S(=O)(=O)NC(=O)COc2ccccc2C)c(C)c1 | -21.9% |
| COc1ccc(NC(=O)c2ccc3nc[nH]c3c2)c(OC)c1 | -5.16% |
| COc1ccc(C2=NOC3(CC(=O)N(c4ccc(Cl)cc4)C3=O)C2)c(OC)c1 (centres unmarked) | -11.7% |
| C/C(=N\NS(=O)(=O)c1c(C)cc(C)cc1C)c1ccncc1 | -0.546% |
| CC1CCC(NC(=O)CN2C(=O)NC3(CCCCCC3)C2=O)CC1 (centres unmarked) | -19.8% |
| Oc1ccc(C2C(c3ccccc3)=NN=C(c3ccc(Cl)cc3)N2O)c(O)c1 (centres unmarked) | -3.57% |
| COc1ccc2cc(C3(C)NC(=O)NC3=O)ccc2c1 (centres unmarked) | -0.239% |
| CC12CCC3C(CCC4N(CCO)CCC34C)C1CCC2O.Cl (centres unmarked) | 18.3% |
| CN1CC=C(c2c[nH]c3ccccc23)CC1 | -10.4% |
| OCC1(Cc2ccccc2)CCN(Cc2ccc(C(F)(F)F)cc2)CC1 | -72.9% |
| O=C(c1cc(Br)c(Br)s1)N1CCOCC1 | 5.13% |
| Cc1ccc(/C=C/C(=O)NC2CCS(=O)(=O)C2)cc1 (centres unmarked) | 20.6% |
| Cn1ncc(Br)c1C(=O)Nc1c(F)c(F)cc(F)c1F | 4.18% |
| Cc1ccc(C(=O)C2(C)C3c4cc(Br)ccc4OC(=O)C32C(=O)c2ccco2)cc1 (centres unmarked) | 15.8% |
| COc1ccccc1N(CC(O)CN1C(=O)NC(C)(C)C1=O)S(=O)(=O)c1ccc(C)cc1 (centres unmarked) | -6.48% |
| CCc1ccc(NC(=O)C2CCCN(S(=O)(=O)c3ccc4c(c3)CCCN4C(C)=O)C2)cc1 (centres unmarked) | -2.68% |
| COCCNC(=O)Cn1nc(-c2ccccc2)c2ccccc2c1=O | 0.883% |
| CC1CCc2nc(/C(C#N)=C/c3ccncc3)sc2C1 (centres unmarked) | 6.83% |
